Assay results: PubChem BioAssay AID1460 (National Center for Advancing Translational Sciences (NCATS), 2008)
Values joined by “and” are separate entries in the source; they are usually repeats but may differ in a detail not shown here. Equal entries are not always repeated. Screen size: about 270,000 compounds; about 5,800 (2.1%) were called active. The shares of active, inactive and inconclusive entries below differ from those in the screen. Calls follow the shape of the dose curve; as a rule, active = well fitted inhibition curve with a large enough effect; inconclusive = small, poorly fitted or top-dose-only effect; inactive = flat fitted curve, though single readings scatter. Potencies of inconclusive entries are doubtful fits and often do not repeat.

target: Microtubule-associated protein tau (Homo sapiens) (UniProt P10636); assay: qHTS for Inhibitors of Tau Fibril Formation, Thioflavin T Binding; conditions: recombinant tau K18 P301L (four-repeat tau fragment), heparin-induced fibrillization, ThT fluorescence; series mostly up to 57.4 µM; activity, negative = inhibition: at the top concentration; also: nearly all actives have a fitted effect of over 55% in size
Chain of UniProt P10636 (P10636 whole entry, looked up, the tested form may be a part): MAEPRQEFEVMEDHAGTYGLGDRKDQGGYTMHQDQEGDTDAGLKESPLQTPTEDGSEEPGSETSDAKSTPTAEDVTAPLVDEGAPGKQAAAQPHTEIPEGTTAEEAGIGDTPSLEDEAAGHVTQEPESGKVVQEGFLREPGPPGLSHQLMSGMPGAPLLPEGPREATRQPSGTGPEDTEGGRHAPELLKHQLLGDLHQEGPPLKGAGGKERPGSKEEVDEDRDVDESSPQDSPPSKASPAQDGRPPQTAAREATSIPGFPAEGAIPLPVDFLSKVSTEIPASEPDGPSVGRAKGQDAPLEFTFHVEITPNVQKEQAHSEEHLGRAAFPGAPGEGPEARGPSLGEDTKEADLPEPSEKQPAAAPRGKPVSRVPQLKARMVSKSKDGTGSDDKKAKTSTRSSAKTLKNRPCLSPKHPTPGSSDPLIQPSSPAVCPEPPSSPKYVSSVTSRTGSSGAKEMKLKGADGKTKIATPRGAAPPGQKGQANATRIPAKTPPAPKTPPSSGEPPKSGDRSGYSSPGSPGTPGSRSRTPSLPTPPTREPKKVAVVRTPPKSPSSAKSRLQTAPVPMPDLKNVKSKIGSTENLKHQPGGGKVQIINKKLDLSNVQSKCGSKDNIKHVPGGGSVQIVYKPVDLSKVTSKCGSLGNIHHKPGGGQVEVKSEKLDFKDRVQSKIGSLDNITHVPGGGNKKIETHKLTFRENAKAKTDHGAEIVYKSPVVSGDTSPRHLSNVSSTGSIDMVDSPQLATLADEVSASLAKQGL
Procedure, shortened: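 In this qHTS, human K18 P301L tau is incubated with compound and heparin for 6 hr at 37 C, and Thioflavin T fluorescence then reports fibril load.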
% is scaled to controls: 0 for no effect and ±100 for the full control effect; potency is read from the fitted curve at half-maximal effect; tags tell the direction and shape of the fitted curve.

Question: Cc1ccc2nc(Cl)c(/C=N/Nc3nc(C)cc(C)n3)c(=O)n2c1 was tested. Which Potency did it give?
Answer: Its Potency is inconclusive: 31.6 µM [inhibitor, single point].

Question: For Cc1ccc(/C=C/c2nc3ccccc3s2)s1, which Potency is on record?
Answer: The Potency was inconclusive: 5.01 µM [inhibitor, full curve].

Question: CCOC(=O)N1CCC(NC(=O)c2ccc3c(c2)sc2nc(-c4cccc(OC)c4)cn23)CC1 was tested. Which Potency did it give?
Answer: The Potency was inconclusive: 0.199 µM [inhibitor, full curve].

Question: CCn1c(SCc2cc(=O)n3ccsc3n2)nc2ccccc21 was tested. Which Potency did it give?
Answer: The Potency was inconclusive: 15.8 µM [inhibitor, partial curve].

Question: With CCc1cc2c(nc1CC)CCN(CC/C(C)=N/O[C@@H](C)c1cn([C@H](CO)Cc3ccccc3)nn1)C2 as the compound, how does the activity, negative = inhibition read?
Answer: The activity, negative = inhibition was inactive: -5.54% [at 11.5 µM] and inactive: -5.47% [at 11.5 µM].

Question: Which Potency does the source give for CNC(=O)c1ccc(-c2sc3nc(N4CCOCC4)c4c(c3c2N)CCCC4)o1 here?
Answer: The Potency was active: 15.8 µM.

Question: Cc1ccc(C(=O)CSc2nc(C)cc(C)c2C(=O)Nc2cccc(C)c2)cc1 was tested. Which “activity, negative = inhibition” value did it give?
Answer: The value was inactive: -5.53%.

Question: With C/C(CCN1CCCc2nc(C)c(C)cc21)=N\O[C@@H](C)c1cn([C@@H]2COC[C@@H]2O)nn1 as the compound, how does the activity, negative = inhibition read?
Answer: The activity, negative = inhibition was inactive: 2.3% [at 11.5 µM].

Question: Which Potency does the source give for Cc1ccc(OCC(=O)Nc2ccc(N3CCN(C(=O)c4ccc(C)cc4)CC3)cc2)cc1 here?
Answer: The Potency was inconclusive: 2 µM [inhibitor, full curve, poor fit].

Question: For CSc1nn(Cc2ccc(F)cc2)c(N(C(C)=O)C(C)=O)c1S(=O)(=O)c1ccccc1, which Potency is on record?
Answer: Its Potency is inconclusive: 35.5 µM [inhibitor, partial curve].

Question: With Cc1ccc(C(=O)/C=C/c2ccco2)c(O)c1 as the compound, how does the Potency read?
Answer: The Potency was inconclusive: 20 µM [inhibitor, partial curve].

Question: With Cc1nn2c(N3CCCC3)c3c(nc2c1-c1ccccc1)CCC3 as the compound, how does the Potency read?
Answer: The Potency was inconclusive: 28.2 µM [inhibitor, single point].

Question: With Cc1nn(C)c(Sc2ccccc2N)c1[N+](=O)[O-] as the compound, how does the Potency read?
Answer: The Potency was active: 31.6 µM.

Question: With CC(C)COc1ccc(C(=O)N2CCCCC2CCN2CCOCC2)cc1 (stereo not drawn) as the compound, how does the “activity, negative = inhibition” value read?
Answer: The value was inactive: 2.42%.

Question: How did the Potency turn out when Cc1cc(C(=O)CSc2nc(N)cc(N)n2)c(C)n1-c1cccc(F)c1 was run?
Answer: Its Potency is inconclusive: 22.4 µM [inhibitor, single point].

Question: Which Potency does the source give for N#Cc1c(NC(=O)c2ccc(Cn3cc(Br)cn3)o2)sc2c1CCCCCC2 here?
Answer: Its Potency is inconclusive: 20 µM [inhibitor, partial curve].

Question: Which Potency does the source give for CC(C)C/C=C1\CCc2c([nH]c3ccccc23)C1=O here?
Answer: The Potency was inconclusive: 3.55 µM [inhibitor, full curve, poor fit].

Question: With O=[N+]([O-])/C=C/c1cn(Cc2ccccc2)c2ccccc12 as the compound, how does the Potency read?
Answer: The Potency was inconclusive: 25.1 µM [inhibitor, single point].
